The source gives no read counts; variants with many changes may rest on few reads.
B1: LINE1-mini (parent)
chain: GGCAGAGCUCAACACAGCGUGGCAAAGUGGCUGUGGCUAGACUGCC

Variants of: B1
Assay: self-cleavage, relative activity (ratio to wild type); higher = more cleavage; in vitro, sequencing; the parent is a self-cleaving ribozyme

Variant | self-cleavage
GCCAGAGCUCAACACAGCGUGGCAAAGUGGCUGUGCCUAUAGUGCC [G2C G36C G40U C42G] | 0.01
GCCAGAGCUCAACACAGCGUGGCAAAGUGGCUGUGUCUACACUGCC [G2C G36U G40C] | 0.05
GUCCGAGCUCAUCACAGCGUGGCAAAUUGGCUGUGGCAAGACUGCC [G2U A4C A12U G27U U38A] | 0.03
GCCAGAGCCCAACACAGCGUGGCAAAGUGCUUGUGGCUAGAUUGCC [G2C U9C G30C C31U C42U] | 0.08
GUCGAAGCACAAAAUAGCGUGGCAAAGUGGCUGUGGCUAGACUGCC [G2U A4G G5A U9A C13A C15U] | 0.03
GCCAGAGCUCAACACAGCGUGGCAAACCGGCUGUGGCUAGACUUCC [G2C G27C U28C G44U] | 0.2
GUCAGAGCUCCACACAGCGUGGCAAUGUGGCUGUGGCUAAGCGGCC [G2U A11C A26U G40A A41G U43G] | 0.01
GCCAGAGCUCAACACAGCCUGGCAAAGUGGCUGUGGCUCGACAGCC [G2C G19C A39C U43A] | 0
GCCAGAGCAGAACACAGCGUGGAAAAGUGGCUGUGGCUAGACUGCA [G2C U9A C10G C23A C46A] | 0.03
GUCAGUCCUCAACACAGCGUGGCCAAGUGGCUGUGGCUAGAUUGCC [G2U A6U G7C A24C C42U] | 0.05
GCCAGAGCCCAACACAGCGUGGCAAAGUAGCUGUGGCUAGACUGCC [G2C U9C G29A] | 0
GCCAGAGCUCAACACAGCGUGGCAAAUUGGGUGUGGCUAGACUGCC [G2C G27U C31G] | 0.11
GUCAGUGCUCAACACACCGUGGCAAAGUGGCUGUGGCUAGACUGCC [G2U A6U G17C] | 0.05
GCCAGAGCUCAACACAGCGUGGCAAAGUGGCUGUCGCCAUACUGCC [G2C G35C U38C G40U] | 0.09
GCCAGAGCUCAACACAGCGUGGCAAAUUGGCUGAACCUAGACUGCC [G2C G27U U34A G35A G36C] | 0.01
GUCAGUGCCCAACACAGCGUGGCAAAGUGGCUGUGGCUUGACUGCC [G2U A6U U9C A39U] | 0.01
GUCCGAGCUCAACACAGCGUGGCAAAGUGGGUGUGGCUAGCCUGCC [G2U A4C C31G A41C] | 0.05
GUCAGUGCUCAACACAUCGUGGCAAAGGGGCAGUGGCUAGACUGCC [G2U A6U G17U U28G U32A] | 0.01
GUCAGGGCUCAACACAUCGUAGCAAAGUGGCUGUGGCAAGACUGUC [G2U A6G G17U G21A U38A C45U] | 0.01

Variant | self-cleavage
GUCAGUGCUCCUCACAGCGUGGUAAAGUGGCUGUGGCUAGACUGCC [G2U A6U A11C A12U C23U] | 0.01
GCCAGAGCUCAACACAGCGUGCCAAAGUGGCUGUGGAUAGACUCCC [G2C G22C C37A G44C] | 0.02
GCCAGAGCUCAACACAGCGUGGCAAAGUCGCUGUGGCUAGGCUGCU [G2C G29C A41G C46U] | 0.12
GCCAGAGCUCAACACAGCUUGGCAAAGUGGCUGUGGAUAGACUGCC [G2C G19U C37A] | 0.02
GUCAGAGCUCGACACAGCAUGGCAAAGUGGCUGUGGCUAGACUGCC [G2U A11G G19A] | 0
GCCAGAGCUCAACACAGCGUGGCAAAAUGGCUGCGGCUAGACUGCC [G2C G27A U34C] | 0.12
GCCAGAGCUCAACACAGCGUGGCAAAGUGGCUGUCGCUAGACUCCC [G2C G35C G44C] | 0.02
GCCAGAGCUCAACACAGCGUGGCAAAGUGGCUGUGGCUAGACAGAC [G2C U43A C45A] | 0.13
GCCAGAGCUCAACACAGCGUGGCAAAGUGGCUGUGCCCAGACUGCG [G2C G36C U38C C46G] | 0.07
GUCAGAGCUCCACACAGCGUGGCAAAGUGGCUGUUGCUAGACUGCC [G2U A11C G35U] | 0.01
GUCAGGGCUCAACAAAGCGUGGCACAGUGGCUGUGGCUAGACUGCC [G2U A6G C15A A25C] | 0.01
GUCAGAGCUCGACACAGCGUGGCAACGUGGCUGUGGCUAGACUACC [G2U A11G A26C G44A] | 0.02
GUCUGAGGUCAACACAGCGUGGCAAAUUGGCUGUGGCUAGACUGCC [G2U A4U C8G G27U] | 0.18
GCCAGAGCUCAACACAGCGUGGCAAAGUGGCUGUGACAAGACUGCC [G2C G36A U38A] | 0.1
GUCAGUGCUCAUCACAGCGUGGGAAAGUGGCUGUGGCUAGACUGAC [G2U A6U A12U C23G C45A] | 0.03
GCCAGAGCUCAACACAGCGUGCCAAAGUUGCUUUGGCUAGACUGCC [G2C G22C G29U G33U] | 0.21
GUCAGAGCUCGACACAGCGUGGCAAAGUGCGUGUGGCUAGACUGCC [G2U A11G G30C C31G] | 0
GUCAGUGCUCAACACAGCGUGGCAAAGAGGCUGUGGCUAGACUGCU [G2U A6U U28A C46U] | 0.31
GCCAGAGCUCAACACAGCCUGGCAAAGUGGCUGUGGCUAGACUGGC [G2C G19C C45G] | 0.12

Variant | self-cleavage
GCCAGAGCUCAACACAGCUUGGCAAAGUGGAUGAGGCUUGACUGCC [G2C G19U C31A U34A A39U] | 0.01
GCCAGAGCCCAACACAGCAAGCCAAAGUGGCUGUGGCUAGACUGCG [G2C U9C G19A U20A G22C C46G] | 0.01
GCCAGAGCUCAACACAGCGUGGCAAAGUGGCUAUCGCUAGACUACC [G2C G33A G35C G44A] | 0.05
GUCUGAGCUAACCACAGCGAUGCAAAGUGGCUGUGGAUAGACUGCC [G2U A4U C10A A12C U20A G21U C37A] | 0
GUCGGAGCUCAACACAGCGUGGCAAAAGGACUGUGGCUAGACUACC [G2U A4G G27A U28G G30A G44A] | 0.11
GCCAGAGCUCAACACAGCGUGGCAAAGUGGCUGUGGCUAGACAGCU [G2C U43A C46U] | 0.02
GUCAGGGCUCAACACAGCGUGGCAAAGCGGGUGUGGCUAGACUGCC [G2U A6G U28C C31G] | 0.02
GCCAGAGCUCAACACAGCGUGGCAAAUUGGCCGUAGCUAGACUGCC [G2C G27U U32C G35A] | 0.04
GCCAGAGCUCAACACAGCGUGGCAAAGUGCCUGUGGCUAGAUUGCC [G2C G30C C42U] | 0.15
GCCAGAGCUCAACACAGCGUCGCAAAGUGGCUGUGGCUAGACUCCC [G2C G21C G44C] | 0.16
GCCAGAGCUCAACACAGCUUGGCAAAAUGGCUGUGGCAAUACUGCC [G2C G19U G27A U38A G40U] | 0.17
GUCAGCGCUCAACACAGCGUGGCAAACUGGCUGUGGCUAGACUGCC [G2U A6C G27C] | 0.03
GCCAGAGCUCAACACAGCGUGGCAAAGUGGCUGUGGCGAUAAUGCC [G2C U38G G40U C42A] | 0.13
GCCAGAGCCCAACACAGAGUGGCAAAGUGGCUGUGGCUAGACUGCC [G2C U9C C18A] | 0.01
GUCAGGGCUCAACACAUCGUGGCAAAGAGUCUAUGGCUAAACUGCC [G2U A6G G17U U28A G30U G33A G40A] | 0
GUCCGAGCUCGACACAGCGUGGAAAAGUGGCUGUGGAUAGACUGCC [G2U A4C A11G C23A C37A] | 0.02
GCCAGAGCUCAACACAGCGCAGCAAAGUGGCAGUGGCUAGACUGCC [G2C U20C G21A U32A] | 0.03
GCCAGAGCUCAACACAGCGUGGCAAAGUAGCUAUGGCUAGAGUGCC [G2C G29A G33A C42G] | 0.03
